# Reference: PubChem BioAssay (NCI)
# “And” between values parts separate entries of the source, which are not always exact repeats. Identical values can stand only once.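 Test compounds were applied to cells in 96-well plates for 48 hours at 5 doses. At the GI50, growth is halved. TGI: concentration producing complete growth inhibition.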
# System: NCI-H322M lung
# Assay: DTP human tumour cell line panel, 48 h
Compound,TGI,GI50
COC(=O)CCC(=O)Nc1cccc(C(F)(F)F)c1,> 100 µM,–
CCOC(=O)c1ccc(OCc2nc3cc(C(F)(F)F)ccc3nc2-c2ccccc2)cc1,> 100 µM,–
Clc1cc(Cl)cc(C2SCc3nc4ccccc4n32)c1 (stereo not given),39.1 µM,–
COc1c(N2CCCCC2)c2c(=O)c3ccccc3oc2c2cc(C)oc12,> 100 µM,–
CCOc1ccccc1NC(=O)CSc1nnc(Cc2ccccc2)o1,> 100 µM,–
CC(C)C[C@H](NC(=O)[C@H](Cc1ccccc1)NC(=O)c1cnccn1)B(O)O,6.58 µM and 0.704 µM and 0.996 µM,0.0779 µM and 0.0259 µM
Nc1ccc([As](=O)(O)O)cc1,> 100 µM,–
CCN1C(=O)/C(=C\c2coc3ccccc3c2=O)SC1=S,> 100 µM,–
O=S(=O)(Nc1nc2ccccc2nc1Nc1cccc2ccccc12)c1ccccc1,> 100 µM,–
O=C1c2cccc3c([N+](=O)[O-])ccc(c23)C(=O)N1CCCCl,> 10 µM,> 10 µM
CC[C@@]1(O)C(=O)OCc2c1cc1n(c2=O)Cc2cc3c([N+](=O)[O-])c(O)ccc3nc2-1,21.8 µM,1.84 µM
ClCCN(CC#CCCCC#CCN(CCCl)CCCl)CCCl,31.2 µM,–
[N-]=[N+]=CC(=O)OC1CCc2ccccc21 (stereo not given),> 100 µM,–
CCOC(=O)C1Nc2ccc([N+](=O)[O-])cc2[C@H]2OCC[C@@H]12 (stereo not given in full),> 100 µM,–
CCOC(=O)C1C(c2ccco2)C2(C#N)C(=N)OC1(C)C2(C#N)C#N (stereo not given),> 100 µM,–
Cc1ccc(N/C(=C(/C(Cl)=C(Cl)Cl)[N+](=O)[O-])n2nnc3ccccc32)cc1,43.6 µM,–
COc1cc(C(=O)O)cc2c1[nH]c1ccccc12,> 25 µM,–
O=C1CC2(CCN(CC3COc4ccccc4O3)CC2)C(=O)N1N1CCCCCC1 (stereo not given),> 100 µM,–
CCN(CC)c1ccc(CNc2cc(C)nc3ccc(OC)cc23)cc1,8.49 µM,2.84 µM
O=C1C[C@@H]2[C@@H](C=CC23CC3)N1O,> 100 µM,–
O=C(O)COc1cc(-c2ccccc2F)nc2cc3c(cc12)OCO3,> 100 µM,–
